From patent US5834430A, “Potentiation of antibiotics” (BiosYnth S.r.l., priority 1995, dated 1998)
Not every detail of the peptide structures is certain; ends, links or a residue may be inferred. Residues, ends and D or L forms follow the SMILES beside them.

What was measured:
E. coli IH3080 [1] = assay: Checkerboard microdilution MIC of antibiotic with peptide; format: cell-based, Escherichia coli; conditions: for MIC Rifampin: Experiment I; for MIC Fusidic a.: Experiment II; for MIC Novobiocin: Experiment III; for MIC Erythrom.: Experiment IV
Protocol: (§1) The general assay medium was L broth (pH7.2) which contained 10 g of tryptone (Difco Laboratories, Detroit, Mich.), 5 g of yeast extract (Oxoid Ltd., Hampshire, UK) and 5 g of sodium chloride per liter. After an incubation time of 18 hours at 37° C., the growth of each microtiter well is measured with a Titerteck Multiscan spectrophotometer at 405 nm. Before reading, the spectrophotometer was blanked with corresponding uninoculated drug-containing media. The minimum inhibitory concentration (MIC) of an antibiotic was defined as the lowest concentration of the antibiotic expressed in mg/l which reduced the growth of the target bacteria by ≥90% (MIC90).

S. typhi SH5014 = assay: as above; format: cell-based, Salmonella typhimurium; conditions: for MIC Rifampin: Experiment I; for MIC Fusidic a.: Experiment II; for MIC Novobiocin: Experiment III; for MIC Erythromycin.: Experiment IV
Protocol: as §1

Kl. pneumoniae 12854 = assay: as above; format: cell-based; conditions: for MIC Rifampin: Experiment I; for MIC Fusidic a.: Experiment II; for MIC Novobiocin: Experiment III; for MIC Erythrom.: Experiment IV
Protocol: as §1

E. cloa 12645 = assay: as above; format: cell-based, Enterobacter cloacae; conditions: for MIC Rifampin: Experiment I; for MIC Fusidic a.: Experiment II; for MIC Novobiocin: Experiment III; for MIC Erythrom.: Experiment IV
Protocol: as §1

E. coli IH3080 [2] = assay: Antibacterial activity of peptide used alone; format: cell-based, Escherichia coli; conditions: no antibiotic
Klebs pneum. 12854 = assay: Antibacterial activity of peptide used alone; format: cell-based, Klebsiella pneumoniae; conditions: no antibiotic
Enterob. cloacae 12654 = assay: Antibacterial activity of peptide used alone; format: cell-based, Enterobacter cloacae; conditions: no antibiotic
Pseud. aeroginosa PAO1 = assay: Antibacterial activity of peptide used alone; format: cell-based, Pseudomonas aeruginosa; conditions: no antibiotic
Micrococcus luteus ML36 = assay: Antibacterial activity of peptide used alone; format: cell-based; conditions: no antibiotic

NCCCC[C@H](NC(=O)[C@H](Cc1ccccc1)NC(=O)[C@H](Cc1ccccc1)NC(=O)[C@H](CCCCN)NC(=O)[C@H](Cc1ccccc1)NC(=O)[C@H](Cc1ccccc1)NC(=O)[C@@H](N)CCCCN)C(=O)N[C@@H](Cc1ccccc1)C(=O)N[C@@H](CS)C(=O)O [Peptide Seq. ID 40] (H-KFFKFFKFC-OH)
0.01 mg/L: MIC Rifampin (S. typhi SH5014; peptide 10 mg/l) | MIC Rifampin (Kl. pneumoniae 12854; peptide 100 mg/l) | MIC Rifampin (E. cloa 12645; peptide 100 mg/l)
100 mg/L: MIC Fusidic a. (E. coli IH3080 [1]; peptide 1 mg/l) | MIC Fusidic a. (S. typhi SH5014; peptide 1 mg/l) | MIC Erythromycin. (S. typhi SH5014; peptide 1 mg/l) | MIC Fusidic a. (Kl. pneumoniae 12854; peptide 1 mg/l) | MIC Fusidic a. (E. cloa 12645; peptide 1 mg/l) | MIC Erythrom. (E. cloa 12645; peptide 1 mg/l) | antibacterial activity (MIC) of peptide used alone (E. coli IH3080 [2])
0.03 mg/L: MIC Rifampin (E. coli IH3080 [1]; peptide 10 mg/l)
1 mg/L: MIC Rifampin (E. coli IH3080 [1]; peptide 1 mg/l) | MIC Fusidic a. (E. coli IH3080 [1]; peptide 10 mg/l) | MIC Novobiocin (E. coli IH3080 [1]; peptide 1 mg/l) | MIC Novobiocin (E. coli IH3080 [1]; peptide 10 mg/l) | MIC Novobiocin (E. coli IH3080 [1]; peptide 30 mg/l) | MIC Erythrom. (E. coli IH3080 [1]; peptide 30 mg/l) | MIC Fusidic a. (S. typhi SH5014; peptide 10 mg/l) | MIC Novobiocin (S. typhi SH5014; peptide 10 mg/l) | MIC Erythromycin. (S. typhi SH5014; peptide 10 mg/l) | MIC Fusidic a. (Kl. pneumoniae 12854; peptide 100 mg/l) | MIC Novobiocin (Kl. pneumoniae 12854; peptide 100 mg/l) | MIC Erythrom. (Kl. pneumoniae 12854; peptide 100 mg/l) | MIC Fusidic a. (E. cloa 12645; peptide 100 mg/l) | MIC Novobiocin (E. cloa 12645; peptide 10 mg/l) | MIC Novobiocin (E. cloa 12645; peptide 100 mg/l) | MIC Erythrom. (E. cloa 12645; peptide 10 mg/l) | MIC Erythrom. (E. cloa 12645; peptide 100 mg/l)
10 mg/L: MIC Novobiocin (S. typhi SH5014; peptide 1 mg/l) | MIC Rifampin (Kl. pneumoniae 12854; peptide 1 mg/l) | MIC Fusidic a. (Kl. pneumoniae 12854; peptide 10 mg/l) | MIC Novobiocin (E. cloa 12645; peptide 1 mg/l) | antibacterial activity (MIC) of peptide used alone (Micrococcus luteus ML36)
0.1 mg/L: MIC Rifampin (Kl. pneumoniae 12854; peptide 10 mg/l) | MIC Rifampin (E. cloa 12645; peptide 10 mg/l)
30 mg/L: MIC Erythrom. (E. coli IH3080 [1]; peptide 1 mg/l) | MIC Novobiocin (Kl. pneumoniae 12854; peptide 1 mg/l) | antibacterial activity (MIC) of peptide used alone (Pseud. aeroginosa PAO1)
3 mg/L: MIC Erythrom. (E. coli IH3080 [1]; peptide 10 mg/l) | MIC Rifampin (S. typhi SH5014; peptide 1 mg/l) | MIC Novobiocin (Kl. pneumoniae 12854; peptide 10 mg/l) | MIC Erythrom. (Kl. pneumoniae 12854; peptide 10 mg/l) | MIC Rifampin (E. cloa 12645; peptide 1 mg/l) | MIC Fusidic a. (E. cloa 12645; peptide 10 mg/l)
> 100 mg/L: MIC Erythrom. (Kl. pneumoniae 12854; peptide 1 mg/l) | antibacterial activity (MIC) of peptide used alone (Klebs pneum. 12854) | antibacterial activity (MIC) of peptide used alone (Enterob. cloacae 12654)

CC[C@H](C)[C@H](N)C(=O)N[C@@H](CCCCN)C(=O)N[C@@H](Cc1ccccc1)C(=O)N[C@@H](CC(C)C)C(=O)N[C@@H](CCCCN)C(=O)N[C@@H](Cc1ccccc1)C(=O)N[C@@H](CC(C)C)C(=O)N[C@@H](CCCCN)C(=O)N[C@@H](Cc1ccccc1)C(=O)N[C@@H](CC(C)C)C(=O)O [Peptide Seq. ID 41] (H-IKFLKFLKFL-OH)
300 mg/L: MIC Fusidic a. (Kl. pneumoniae 12854; peptide 1 mg/l)
0.01 mg/L: MIC Rifampin (E. coli IH3080 [1]; peptide 30 mg/l) | MIC Rifampin (S. typhi SH5014; peptide 3 mg/l) | MIC Rifampin (Kl. pneumoniae 12854; peptide 30 mg/l) | MIC Rifampin (E. cloa 12645; peptide 30 mg/l)
1 mg/L: MIC Rifampin (E. coli IH3080 [1]; peptide 1 mg/l) | MIC Fusidic a. (E. coli IH3080 [1]; peptide 10 mg/l) | MIC Fusidic a. (E. coli IH3080 [1]; peptide 30 mg/l) | MIC Novobiocin (E. coli IH3080 [1]; peptide 10 mg/l) | MIC Erythrom. (E. coli IH3080 [1]; peptide 10 mg/l) | MIC Fusidic a. (S. typhi SH5014; peptide 3 mg/l) | MIC Novobiocin (S. typhi SH5014; peptide 3 mg/l) | MIC Erythromycin. (S. typhi SH5014; peptide 3 mg/l) | MIC Fusidic a. (Kl. pneumoniae 12854; peptide 30 mg/l) | MIC Novobiocin (Kl. pneumoniae 12854; peptide 10 mg/l) | MIC Novobiocin (Kl. pneumoniae 12854; peptide 30 mg/l) | MIC Erythrom. (Kl. pneumoniae 12854; peptide 30 mg/l) | MIC Fusidic a. (E. cloa 12645; peptide 10 mg/l) | MIC Fusidic a. (E. cloa 12645; peptide 30 mg/l) | MIC Novobiocin (E. cloa 12645; peptide 10 mg/l) | MIC Novobiocin (E. cloa 12645; peptide 30 mg/l) | MIC Erythrom. (E. cloa 12645; peptide 10 mg/l) | MIC Erythrom. (E. cloa 12645; peptide 30 mg/l)
10 mg/L: MIC Novobiocin (E. coli IH3080 [1]; peptide 1 mg/l) | MIC Erythrom. (E. coli IH3080 [1]; peptide 1 mg/l) | MIC Novobiocin (S. typhi SH5014; peptide 1 mg/l) | MIC Novobiocin (Kl. pneumoniae 12854; peptide 1 mg/l)
0.03 mg/L: MIC Rifampin (E. coli IH3080 [1]; peptide 10 mg/l) | MIC Rifampin (Kl. pneumoniae 12854; peptide 10 mg/l) | MIC Rifampin (E. cloa 12645; peptide 10 mg/l)
30 mg/L: MIC Novobiocin (E. cloa 12645; peptide 1 mg/l) | antibacterial activity (MIC) of peptide used alone (E. coli IH3080 [2]) | antibacterial activity (MIC) of peptide used alone (Pseud. aeroginosa PAO1) | antibacterial activity (MIC) of peptide used alone (Micrococcus luteus ML36)
> 100 mg/L: MIC Erythrom. (Kl. pneumoniae 12854; peptide 1 mg/l) | MIC Erythrom. (E. cloa 12645; peptide 1 mg/l)
100 mg/L: MIC Fusidic a. (E. coli IH3080 [1]; peptide 1 mg/l) | MIC Fusidic a. (S. typhi SH5014; peptide 1 mg/l) | MIC Erythromycin. (S. typhi SH5014; peptide 1 mg/l) | MIC Fusidic a. (E. cloa 12645; peptide 1 mg/l) | antibacterial activity (MIC) of peptide used alone (Klebs pneum. 12854) | antibacterial activity (MIC) of peptide used alone (Enterob. cloacae 12654)
3 mg/L: MIC Rifampin (S. typhi SH5014; peptide 1 mg/l) | MIC Rifampin (Kl. pneumoniae 12854; peptide 1 mg/l) | MIC Fusidic a. (Kl. pneumoniae 12854; peptide 10 mg/l) | MIC Erythrom. (Kl. pneumoniae 12854; peptide 10 mg/l) | MIC Rifampin (E. cloa 12645; peptide 1 mg/l)
